Measured values reported in publication PMC4336329 (PLoS ONE, 2015).
The whole screen tested about 310,000 compounds, of which about 2,200 (0.71%) showed an effect of 50% or more. Effects have a minus sign here. The list shows a part of the results.

What follows are compounds tested against human ether-à-go-go-related gene (hERG) potassium channel (human, UniProt Q12809) (assay: primary screen, population patch clamp on CHO cells stably expressing hERG).
Chain of human ether-à-go-go-related gene (hERG) potassium channel (Q12809 whole entry, looked up): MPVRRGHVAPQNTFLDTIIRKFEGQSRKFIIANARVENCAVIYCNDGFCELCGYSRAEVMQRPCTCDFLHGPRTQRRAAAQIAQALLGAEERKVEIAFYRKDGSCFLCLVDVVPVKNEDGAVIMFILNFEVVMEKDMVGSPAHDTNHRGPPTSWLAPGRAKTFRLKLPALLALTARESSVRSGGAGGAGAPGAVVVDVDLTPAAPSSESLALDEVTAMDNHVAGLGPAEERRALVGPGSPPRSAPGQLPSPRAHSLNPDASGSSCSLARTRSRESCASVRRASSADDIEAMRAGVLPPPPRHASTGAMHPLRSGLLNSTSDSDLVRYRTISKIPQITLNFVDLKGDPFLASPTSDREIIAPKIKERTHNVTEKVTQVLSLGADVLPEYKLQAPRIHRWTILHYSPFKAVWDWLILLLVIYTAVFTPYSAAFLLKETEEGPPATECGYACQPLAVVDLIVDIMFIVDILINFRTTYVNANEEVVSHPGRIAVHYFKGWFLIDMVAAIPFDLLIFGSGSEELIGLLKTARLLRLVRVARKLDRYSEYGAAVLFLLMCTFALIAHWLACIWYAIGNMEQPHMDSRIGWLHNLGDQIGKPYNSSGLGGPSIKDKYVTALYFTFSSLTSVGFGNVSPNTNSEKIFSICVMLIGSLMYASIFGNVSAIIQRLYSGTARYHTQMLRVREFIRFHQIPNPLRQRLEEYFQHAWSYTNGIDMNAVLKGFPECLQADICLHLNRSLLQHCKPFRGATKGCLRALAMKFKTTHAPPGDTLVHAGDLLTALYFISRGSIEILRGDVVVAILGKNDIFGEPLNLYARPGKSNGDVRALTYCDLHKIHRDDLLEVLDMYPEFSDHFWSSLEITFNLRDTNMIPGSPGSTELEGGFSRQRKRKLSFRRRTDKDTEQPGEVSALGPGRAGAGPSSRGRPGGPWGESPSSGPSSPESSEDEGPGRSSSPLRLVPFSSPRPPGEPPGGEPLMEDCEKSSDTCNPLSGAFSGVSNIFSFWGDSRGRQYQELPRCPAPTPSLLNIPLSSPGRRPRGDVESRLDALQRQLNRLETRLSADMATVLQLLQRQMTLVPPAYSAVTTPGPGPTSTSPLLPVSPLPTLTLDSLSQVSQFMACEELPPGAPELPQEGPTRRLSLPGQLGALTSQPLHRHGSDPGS

SMILES	hERG current change (%, negative = inhibition) at 1uM
COc1ccc(/C=C/CN2CCCC(C(=O)c3ccc(OC)c(F)c3)C2)cc1 (stereo not drawn)	-47.1%
CCn1c(-c2ccccc2Cl)nn(CC(=O)NCCc2ccccc2)c1=S	7.85%
O=C(c1ccc([N+](=O)[O-])cc1)N(c1ccccn1)c1ccccn1	13.1%
CCCCn1c(=O)c(C=Nc2ccc(Cl)cc2)c(O)n(Cc2ccco2)c1=O	6.55%
Cc1cccc(N2CCN(C(=O)c3c(C)nn(Cc4ccccc4Cl)c3C)CC2)c1C	16.9%
O=C1CC(c2ccncc2)c2cc3c(cc2N1)OCCO3 (stereo not drawn)	9.41%
O=C(NCC1CCCO1)c1ccc(/C=N/O)nc1 (stereo not drawn)	5.39%
CC(=O)N(C)c1ccc(NC(=S)Nc2ccccc2)cc1	8.15%
COc1cc(O)c(CCC(=O)c2cc(OC)c(OC)c(OC)c2)c(OC)c1	14.1%
Cc1nc2sc(C(=O)Nc3ccccc3Cc3ccccc3)c(C)c2c(=O)[nH]1	9.44%
CCN(CC)c1ccc2c(Cl)c(Br)c(=O)oc2c1	8.55%
CCCn1c(SCC(=O)N2c3ccccc3Sc3ccccc32)nc2ccccc21	18.5%
O=C(Nc1ccc(Cl)cn1)c1ccc2[nH]c(=O)c(=O)[nH]c2c1	13.2%
COc1cccc(-c2nc(NCc3ccccc3)c3ccccc3n2)c1O	5.3%
COc1ccc(-c2cc(C(F)(F)F)nc(N)n2)cc1	13.7%
S=c1[nH]nc(-c2ccc(Cl)cc2Cl)n1-c1ccc(Cl)cc1	19.6%
COc1cccc(NC(=O)CSCc2cc(=O)n3nc(C4CC4)sc3n2)c1	12.1%
O=C(NC12CC3CC(CC(C3)C1)C2)c1ccc([N+](=O)[O-])o1	17%
O=C(NN=C1C2CC3CC(C2)CC1C3)c1cccc(S(=O)(=O)N2CCOCC2)c1	10.7%
O=C(c1ccccc1NS(=O)(=O)c1ccc(Br)s1)N1CCOCC1	-1.7%
CCn1cc(C(=O)N2CCN(c3ccccc3OC)CC2)c2cc(OC)c(OC)cc2c1=O	13%
CCCOc1c(Cl)cc(C(=O)Nc2ccc3c(c2)OCO3)cc1OCC	8.19%
O=C(Cn1cc(C(F)(F)F)cc(Cl)c1=O)Nc1cccc(Cl)c1	22.2%

SMILES	hERG current change (%, negative = inhibition) at 1uM
Cc1ccc(-c2nnc(Nc3ccc4c(c3)OCO4)c3ccccc23)cc1S(=O)(=O)NCCO	4.31%
CC1=C(C(=O)OC(C)C)C(c2ccc(O)cc2)NC(=O)N1 (stereo not drawn)	14%
CN(C)c1ccc(C(CC(=O)c2ccccc2)C2CCCCC2=O)cc1 (stereo not drawn)	2.38%
COc1ccc([N+](=O)[O-])cc1NC(=O)Cc1noc2ccc(C)cc12	8.07%
COc1ccccc1C(=O)NCCC(=O)NCc1cccnc1	9.87%
CC(C)CNc1c2c(nc3ccccc13)CCC2.Cl	-33.5%
Cc1c(/C=N\NC(=O)C2(C)CC2(Cl)Cl)cnn1C (stereo not drawn)	9.68%
C=CCNC(=O)c1sc(-c2ccccc2)nc1C	0.876%
CCOc1ccc(S(=O)(=O)N2CCN(C(=O)C3CCC3)CC2)cc1	12.2%
Cc1c(OCC(=O)N2C[C@H]3C[C@@H](C2)c2cccc(=O)n2C3)ccc2c3c(c(=O)oc12)CCC3	9.66%
CCOC(=O)/C(CCCN(CC)CC)=N\O.CI	12.6%
C/C(=N\NC(=O)c1ccc(CSc2cccc3cccnc23)cc1)C1CCCCC1	6.98%
C=CCn1c(C)c(C(C)=O)c(N2CCOCC2)nc1=S	13.8%
COc1ccc(NC(=S)N2CCCC(c3nc4ccc(C)cc4[nH]3)C2)cc1 (stereo not drawn)	-7.53%
COc1ccc(C(C)(C)C)cc1NC(=O)COC(=O)c1nc2nccc(C)n2n1	6.73%
Cc1ccc(-n2nnc3c(=O)n(CC(=O)c4ccccc4)cnc32)cc1	6.81%
COc1ccc(CCNC(=O)COC(=O)c2cc(=O)c3ccccc3o2)cc1	5.65%
COc1ccc(-n2nc(C(=O)N3CCCCC3)c(C)c(C#N)c2=O)cc1	10.7%
COc1ccc(Nc2nnc(SCC(=O)/C=C3/N(C)c4ccccc4C3(C)C)s2)cc1	7.06%
O=S(=O)(NCC(c1cccnc1)N1CCN(Cc2ccccc2)CC1)c1cc(F)ccc1F (stereo not drawn)	-42.5%
CSCCC(NC(=O)c1ccccc1)C(=O)N1CC=C(c2ccccc2)CC1 (stereo not drawn)	7.88%
COc1cc(C2C3C(=O)N(c4ccccc4)C(=O)C3ON2c2ccccc2)cc(OC)c1OC (stereo not drawn)	-1.58%
